We go through 79 molecules from PubChem BioAssay (NCI).

Values joined by “and” are separate entries in the source; they are usually repeats but may differ in a detail not shown here. Identical values can stand only once.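 These data come from cells grown in 96-well plates and exposed to compound for 48 hours at five concentrations. Here, GI50 denotes the concentration required for 50% inhibition of growth. TGI marks complete inhibition of growth.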 Square brackets hold non-standard residues; d marks the D form. Peptide text beside a SMILES is read from it. * marks the point of attachment. Tyr(3-Br) = N[C@@H](Cc1ccc(O)c(Br)c1)C(=O)O; Boc = CC(C)(C)OC(=O)*

In this assay the test system is NCI-H322M lung. In words: NCI tumour cell line growth inhibition, 48 h.
With `COC(=O)Nc1nc2ccc(C(=O)c3ccc(N(C)C4COC4)cc3)cc2[nH]1`, the GI50 was 0.65 µM and the TGI is greater than 100 µM.
`COc1ccc(C(=O)C(c2ccc(OC)cc2)C2OC(=O)C(Cl)=C2Cl)cc1` (stereo unspecified): the TGI was greater than 100 µM.
On the same count and under the same terms, the figure for `CC(=O)O[C@H]1CCC2[C@@H]3CCC4=C(O)C(=O)C(C#N)C[C@]4(C)C3CC[C@@]21C` (stereo partly specified) is greater than 100 µM; for `O=C(CC1(O)C(=O)Nc2ccccc21)c1ccco1` (stereo unspecified) it is greater than 100 µM.
Consider `CN(C)C/C=C/C(=O)Nc1cc2c(Nc3ccc(F)c(Cl)c3F)ncnc2cc1OCCOC(F)F`, for which the GI50 is less than 0.01 µM and the TGI is 2.09 µM.
Take `O/N=C1/C(=C/c2ccc(Oc3ccccc3)cc2)CCCC1C(NO)c1ccc(Oc2ccccc2)cc1` (stereo unspecified): the TGI was greater than 100 µM.
Same read-out and setting: the figure for `COC(=O)c1cccc(N[C@@H]2c3cc4c(cc3C(c3cc(OC)c(O)c(OC)c3)[C@H]3C(=O)OCC32)OCO4)c1` (stereo partly specified) is greater than 100 µM; for `COc1cc(O)c2c(c1)C(=O)C=C(Cl)C2=O` it is greater than 100 µM.
On the same count and under the same terms, the figure for `CC(=O)NNc1nc(C)c(C(/C=C/c2ccc([N+](=O)[O-])cc2)=N/NC(N)=S)s1` is greater than 100 µM.
On to `Nc1ccccc1NC(=O)c1ccc(CCCC(=O)Nc2ccc(C3CC3N)cc2)cc1` (stereo unspecified), for which the GI50 is 2.8 µM and the TGI came out at 27.5 µM.
`COC(=O)CCC(=O)Nc1cc(Cl)ccc1Cl` displayed a TGI greater than 100 µM.
On the same count and under the same terms, the figure for `NC(=O)c1coc(C2OC(CO)C(O)C2O)n1` (stereo unspecified) is greater than 100 µM.
Consider `N#CSc1c[nH]c2ccc(/C=C/C(=O)/C=C(/C=C/c3ccc4[nH]cc(SC#N)c4c3)OB(F)F)cc12`, for which the GI50 is 18.6 µM and the TGI was greater than 100 µM.
The molecule `COc1ccc(NC(=O)CC/C(CC(=O)C(C)(C)C)=N\NC(=O)C(N)=O)cc1` showed a TGI greater than 100 µM.
Same read-out and setting: next, `CCOC(=O)c1c(C)cc(=O)n2c1[nH]c1ccccc12`: greater than 100 µM; `CC(=O)Oc1ccc2c(c1)oc1c3ccc(OC(C)=O)cc3n(C)c(=O)c21`: greater than 100 µM.
Regarding `O=C(O)c1ccc(S(=O)(=O)Nc2ccc3oc4c(c3c2)C(=O)CCC4)cc1`, the GI50 was greater than 100 µM and the TGI is greater than 100 µM.
In turn, `O=C(Cc1csc(N=Nc2c(O)[nH]c3ccccc23)n1)Nc1ccccc1` displayed a TGI greater than 100 µM.
`COc1cc(Nc2ncc(F)c(Nc3ccc4c(n3)NC(=O)C(C)(C)O4)n2)cc(OC)c1OC`: the GI50 was 5.85 µM and the TGI is greater than 10 µM.
Molecule `C/C1=C/C(C)CC(C)OC(=O)C(C)NC(=O)C(Cc2ccc(O)c(I)c2)N(C)C(=O)C(C)NC(=O)C(C)C1` (stereo unspecified) came in with a TGI greater than 100 µM.
On the same count and under the same terms, next, `O=C1N2CCc3c([nH]c4ccccc34)C23CC2CCCCC12S3` (stereo unspecified): greater than 100 µM; `O=C(Cc1csc(-c2nc(CC(=O)NNc3ccccc3)cs2)n1)NNc1ccccc1`: greater than 100 µM; `O=C(C[n+]1ccccc1)N/N=C(\Cc1nc2ccc([N+](=O)[O-])cc2[nH]c1=O)C(=O)Nc1cc(Cl)c(Cl)cc1Cl`: greater than 100 µM.
Still for that read-out and setting: the figure for `O=C1O[C@H]2[C@H](O)[C@@H](OC(=O)c3cc(O)c(O)c4c3[C@@H]3C1=CC(=O)C(O)(O)C3(O)O4)[C@H](OC(=O)c1cc(O)c(O)c(O)c1)O[C@@H]2CO` (stereo partly specified) is greater than 100 µM.
In the case of `O=Cc1ccc(-c2ccc(-c3nc4ccccc4o3)cc2)s1`, the GI50 is 17.7 µM and the TGI stood at 58.2 µM.
Consider `CC(C)CCC[C@@H](C)C1CCC2[C@@H]3CC=C4C[C@@H](C(=O)NCC[N+](C)(C)CCCS(=O)(=O)[O-])CC[C@]4(C)C3CC[C@@]21C` (stereo partly specified), for which the TGI is 30.4 µM.
In the case of `CS(=O)(=O)Nc1cccc(-c2cc(-c3ccccc3Cl)c(C#N)c(N)n2)c1`, the GI50 was 6.38 µM and the TGI turned out to be 24.4 µM.
Regarding `CN(/N=C/c1cccc2cccnc12)c1ccc([N+](=O)[O-])cc1`, the TGI is greater than 100 µM.
`O=C1c2ccccc2NC1(c1ccccc1)c1c(-c2ccccc2)[nH]c2ccccc12` (stereo unspecified) had a TGI greater than 100 µM.
Still for that read-out and setting: the figure for `CCN(CC)CCCC(C)Nc1ccnc2ccc3nn(C)nc3c12` (stereo unspecified) is greater than 100 µM; for `Cc1cccc(CC(Cc2c(C)cccc2C(=O)O)C(=O)O)c1` (stereo unspecified) it is greater than 100 µM; for `COC(=O)[C@H](Cc1ccc(O)c(Br)c1)NC(=O)[C@H](Cc1ccc(O)cc1)NC(=O)OC(C)(C)C` (Boc-Tyr-[Tyr(3-Br)]-OMe) it is greater than 100 µM.
In turn, `CC(C)(C)c1cc2c(O)c(c1)Cc1cc(C(C#N)(Cc3ccc4ccccc4c3)Cc3ccc4ccccc4c3)cc(c1O)Cc1cc(C(C)(C)C)cc(c1O)Cc1cc(C(C#N)(Cc3ccc4ccccc4c3)Cc3ccc4ccccc4c3)cc(c1O)C2` displayed a TGI greater than 100 µM.
The same measure, in the same setting: next, `CC(=O)c1ccc2c(ccc(=O)n2C)c1`: greater than 100 µM; `O=c1cc(-c2ccccc2)oc2cc(O)cc(O)c12`: 78.2 µM; `Cc1ccc(S(=O)(=O)N2C[C@](O)(c3ccccc3)[C@H]2C)cc1`: greater than 100 µM.
Still for that read-out and setting: the figure for `O=C(Nc1cccc(Cc2cccc(NC(=O)c3ccccc3)c2)c1)c1ccccc1` is greater than 100 µM; for `COc1cc(C(=O)O[C@@H]2[C@@H](OC(=O)c3cc(OC)c(OC)c(OC)c3)[C@@H](OC)O[C@@H]3CO[C@@H](c4ccccc4)O[C@@H]23)cc(OC)c1OC` it is greater than 100 µM.
Regarding `CC#C/C(=N\OC[C@H]1COCCN1)c1ccc2ncnc(Nc3ccc(OCc4cccc(F)c4)c(Cl)c3)c2c1`, the GI50 was 0.227 µM and the TGI was 1.75 µM.
Consider `Cc1ccc(N=N/C(=N/NC(=O)c2cc(Cl)ccc2C(=O)c2ccccc2)c2ccc(N(CCC#N)CCC#N)cc2C)cc1`, for which the TGI was greater than 100 µM.
Same read-out and setting: next, `CN(C)CC1COC2Cc3ccccc3C1O2` (stereo unspecified): greater than 100 µM.
With `CCn1cc(-c2ccnc3[nH]ccc23)c(-c2cccc(NC(=O)Nc3ccc(OCc4ccccc4)cc3)c2)n1`, the GI50 was greater than 15.7 µM and the TGI is greater than 25 µM.
`CCOP(=O)(C/C=C/Cn1nc(Br)c(=O)[nH]c1=O)OCC` yielded a TGI greater than 100 µM.
The same measure, in the same setting: next, `O=C(c1ccccc1)c1oc2ccc(Br)cc2c1-c1cnn(-c2ccccc2)c1`: greater than 100 µM; `CN1C(c2ccccc2)CS(=O)(=O)CS1(=O)=O` (stereo unspecified): greater than 100 µM; `COC(C(=O)C(O)C(C)O)C1CC2C=C3C=C(OC4CC(OC5CC(O)C(OC)C(C)O5)C(OC(C)=O)C(C)O4)C(C)C(=O)C3=C(O)C2=C(O)C1OC1CC(OC2CC(OC3CC(C)(O)C(OC(=O)C(C)C)C(C)O3)C(O)C(C)O2)C(O)C(C)O1` (stereo unspecified): less than 0.01 µM.
As for `COC(=O)c1c(O)c([N+](=O)[O-])cc2c1c1c(n2Cc2ccccc2)C(=O)c2ccccc2C1=O`, the GI50 was 26.6 µM and the TGI is greater than 100 µM.
`S=P1(N2CCCCC2)Oc2ccc3ccccc3c2-c2c(ccc3ccccc23)O1` showed a TGI greater than 100 µM.
The same measure, in the same setting: next, `O=C1CC(=O)NC(=NN2C(=O)/C(=C/c3ccccc3)N=C2c2ccccc2)N1`: greater than 100 µM.
Regarding `CN1C(=O)[C@@H](NC(=O)[C@H](CCC(F)(F)F)[C@H](CCC(F)(F)F)C(N)=O)N=C(c2ccccc2)c2ccccc21`, the GI50 was greater than 100 µM and the TGI is greater than 100 µM.
As to `CC(=O)OC1CC2Oc3ccc(C)cc3C(C)(O2)C1=O` (stereo unspecified), the TGI is greater than 100 µM.
On the same count and under the same terms, next, `CC1=C(C(=O)NCc2ccccc2)C(c2ccc([N+](=O)[O-])cc2)C(C(=O)NCc2ccccc2)=C(C)N1`: 98 µM.
The same measure, in the same setting: next, `CS(=O)(=O)c1c(N)c2nc(Cl)cn2c2nc3ccccc3nc12`: greater than 100 µM; `C/C(=N\Nc1nc2ccccc2n1C)c1cnccn1`: greater than 100 µM; `COc1ccc2c(c1)/C(=C\c1c(C)nc3sc(C)cn13)C(=O)N2`: greater than 100 µM.
On to `Cc1cc(O)c(C2=NN(c3ccc(S(N)(=O)=O)cc3)C(c3ccc(N(C)C)cc3)C2)c(C)c1Cl` (stereo unspecified), for which the GI50 was 18 µM and the TGI is 38.9 µM.
On to `N=C(N)c1ccc(-c2ccc(-c3ccccc3)s2)cc1`, for which the GI50 is 1.4 µM and the TGI worked out at 2.72 µM.
The molecule `Clc1ccccc1C1=NN(c2ccccc2)C2c3ccccc3OCC12` (stereo unspecified) showed a TGI greater than 100 µM.
For `CCCCSC1=N/C(=C\c2ccc(N(C)C)cc2)C(NN)=N1`, the TGI was greater than 100 µM.
In the case of `COc1ccc(-c2nc(C(=O)c3ccccc3)n(CC(=O)c3ccccc3)c2-c2ccc(OC)cc2)cc1`, the GI50 was greater than 100 µM and the TGI was greater than 100 µM.
Turning to `Cc1cc(Nc2c3ccccc3nc3ccccc23)ccc1NS(C)(=O)=O`, the GI50 is 4.34 µM and the TGI was determined as 15.7 µM.
For the molecule `CC(=O)C1C(=O)NC(=O)C1=O` (stereo unspecified), the TGI was greater than 100 µM.
Same read-out and setting: the figure for `COc1ccc(C2Oc3cc(OC)c(O)c(C)c3[C@H]2C)cc1` (stereo partly specified) is greater than 100 µM; for `O=C(O)c1cc2ccccc2oc1=O` it is greater than 100 µM.
The same measure, in the same setting: next, `CCOC(=O)c1sc(N/N=C2\NC(=O)/C(=C/c3ccc([N+](=O)[O-])cc3)S2)nc1C`: greater than 100 µM.
Turning to `CCCCCCCCCc1cc[n+](CC(=O)c2ccc([N+](=O)[O-])cc2)cc1`, the GI50 was 1.95 µM and the TGI was found to be 3.52 µM.
On to `CS(=O)(=O)CCNCc1ccc(-c2ccc3ncnc(Nc4ccc(OCc5cccc(F)c5)c(C(F)(F)F)c4)c3c2)o1`, for which the GI50 is 4.59 µM and the TGI came to 15.6 µM.
Take `Nc1ncc(Cl)c(NCC2(CO)CC(CCc3ccccc3)C2)n1` (stereo unspecified): the TGI was greater than 100 µM.
On the same count and under the same terms, the figure for `Cc1ccccc1C(=O)Oc1ccc(O)cc1` is greater than 100 µM.
Turning to `Cc1nccc2c3ccc(OCc4cn(-c5ccc(Cl)cc5)nn4)cc3n(CCCc3ccccc3)c12`, the GI50 was 19.1 µM and the TGI is greater than 33.3 µM.
Molecule `COc1cc2c(cc1OC)C(OC)N(C)c1c-2ccc2cc3c(cc12)OCO3` (stereo unspecified) returned a TGI of 25.5 µM.
With `Nc1ncnc2c1c(-c1cccc(OCc3ccccc3)c1)cn2C1CC(CN2CCC2)C1` (stereo unspecified), the GI50 was 2.26 µM and 6.29 µM; the TGI is 16.1 µM and > 10 µM.
In turn, `CCN(CC)CCCn1c(=O)c2ccccc2n2c3c(=O)n(C)c(=O)n(C)c3nc12` registered a TGI of 21.9 µM.
Same read-out and setting: next, `COc1cc(/C=C2/SC(c3ccccc3)N(c3ccccc3)C2=O)cc(OC)c1OC` (stereo unspecified): greater than 100 µM.
Still for that read-out and setting: the figure for `Cn1c(-c2cccs2)cc(-c2cccs2)c1-c1ccco1` is greater than 100 µM.
Turning to `O=C(O)c1cc2ccccc2c(N=Nc2cc(C(F)(F)F)ccc2Cl)c1O`, the TGI is greater than 100 µM.
As to `CCNc1nnc(-c2nsc3ccccc23)s1`, the TGI stood at 64.3 µM.
For `O=C(Nc1ccccc1O)c1ccc(CNc2ccnc(C(F)(F)F)c2)cc1`, the GI50 was 3.78 µM and the TGI is greater than 100 µM.
Taken in the same sequence, the figures for `OC(COc1ccc(F)cc1)Cn1cnc2c(Cl)ncnc21` (stereo unspecified) were 70.5 µM and greater than 100 µM.
